No constants are given. Whether binding was seen depends on the method and setting. Some binding calls cover weakened binding; strength is not graded here.
Legend:
Assay in all cases: two-hybrid; Gal4 yeast two-hybrid; baits in pGBT9, preys in pGAD424; yeast strain PJ69-4A; serial dilutions spotted on -LW and -LWH with an appropriate concentration of 3-AT; 3 days at 30 °C
AtIDD16 (Arabidopsis) = molecular target: T1, AtIDD16 (Arabidopsis) (UniProt Q9FRH4)
T1 sequence: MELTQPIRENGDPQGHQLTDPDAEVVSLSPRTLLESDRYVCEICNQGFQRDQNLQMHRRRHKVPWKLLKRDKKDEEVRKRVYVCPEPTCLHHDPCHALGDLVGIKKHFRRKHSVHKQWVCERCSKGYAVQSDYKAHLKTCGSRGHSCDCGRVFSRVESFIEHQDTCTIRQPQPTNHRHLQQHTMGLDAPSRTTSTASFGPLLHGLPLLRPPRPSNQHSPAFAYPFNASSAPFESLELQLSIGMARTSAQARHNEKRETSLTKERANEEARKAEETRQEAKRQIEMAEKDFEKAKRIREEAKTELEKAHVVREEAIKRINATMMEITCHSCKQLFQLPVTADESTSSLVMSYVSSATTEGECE

AtIDD1 (Arabidopsis) = molecular target: T2, AtIDD1 (Arabidopsis) (UniProt Q9LVQ7)
T2 sequence: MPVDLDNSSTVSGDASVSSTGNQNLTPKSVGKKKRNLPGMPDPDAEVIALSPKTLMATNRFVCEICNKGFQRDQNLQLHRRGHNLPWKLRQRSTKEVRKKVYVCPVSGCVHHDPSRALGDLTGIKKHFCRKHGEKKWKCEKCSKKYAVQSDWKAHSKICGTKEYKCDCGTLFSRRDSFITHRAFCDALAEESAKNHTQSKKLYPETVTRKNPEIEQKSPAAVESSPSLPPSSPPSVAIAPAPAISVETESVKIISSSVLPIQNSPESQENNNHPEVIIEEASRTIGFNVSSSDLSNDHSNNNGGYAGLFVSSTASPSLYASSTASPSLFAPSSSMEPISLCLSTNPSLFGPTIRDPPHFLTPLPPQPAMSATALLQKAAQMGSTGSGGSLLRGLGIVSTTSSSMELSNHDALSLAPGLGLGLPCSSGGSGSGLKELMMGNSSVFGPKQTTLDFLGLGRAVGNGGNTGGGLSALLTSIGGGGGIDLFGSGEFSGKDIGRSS

AtIDD6 (Arabidopsis) = molecular target: T3, AtIDD6 (Arabidopsis) (UniProt Q8RWX7)
T3 sequence: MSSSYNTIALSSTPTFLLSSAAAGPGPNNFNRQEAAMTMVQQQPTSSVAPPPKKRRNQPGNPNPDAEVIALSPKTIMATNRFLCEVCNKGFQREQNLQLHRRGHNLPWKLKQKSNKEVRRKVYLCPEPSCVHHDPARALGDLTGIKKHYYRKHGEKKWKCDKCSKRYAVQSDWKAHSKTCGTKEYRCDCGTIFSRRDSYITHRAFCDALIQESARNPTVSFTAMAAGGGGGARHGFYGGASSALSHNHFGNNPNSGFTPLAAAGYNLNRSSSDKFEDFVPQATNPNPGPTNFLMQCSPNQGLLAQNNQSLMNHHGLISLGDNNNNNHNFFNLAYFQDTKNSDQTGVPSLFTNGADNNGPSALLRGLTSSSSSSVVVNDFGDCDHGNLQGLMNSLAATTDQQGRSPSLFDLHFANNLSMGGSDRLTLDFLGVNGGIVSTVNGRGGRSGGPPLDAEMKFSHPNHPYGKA

AtIDD10 (Arabidopsis) = molecular target: T4, AtIDD10 (Arabidopsis) (UniProt Q700D2)
T4 sequence: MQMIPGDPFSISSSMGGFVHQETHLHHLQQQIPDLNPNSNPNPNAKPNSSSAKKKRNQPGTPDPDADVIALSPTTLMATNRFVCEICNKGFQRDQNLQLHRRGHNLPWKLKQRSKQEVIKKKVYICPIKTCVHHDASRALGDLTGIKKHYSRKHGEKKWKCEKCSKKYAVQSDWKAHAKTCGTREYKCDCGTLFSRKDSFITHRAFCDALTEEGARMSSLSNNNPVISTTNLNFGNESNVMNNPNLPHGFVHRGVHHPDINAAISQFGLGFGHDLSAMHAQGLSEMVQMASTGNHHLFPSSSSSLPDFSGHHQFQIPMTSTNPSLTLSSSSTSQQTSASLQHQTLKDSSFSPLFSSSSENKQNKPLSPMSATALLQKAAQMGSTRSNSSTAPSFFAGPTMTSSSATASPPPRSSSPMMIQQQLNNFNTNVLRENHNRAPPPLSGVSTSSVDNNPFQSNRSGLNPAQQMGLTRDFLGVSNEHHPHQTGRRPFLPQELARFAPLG

B1: AtIDD15 (protein, UniProt F4IPE3 1-445)
chain: MRTDQVMLSNKNTNTCCVVSSSSSDPFLSSSENGVTTTNTSTQKRKRRPAGTPDPDAEVVSLSPRTLLESDRYICEICNQGFQRDQNLQMHRRRHKVPWKLLKRDNNIEVKKRVYVCPEPTCLHHNPCHALGDLVGIKKHFRRKHSNHKQWVCERCSKGYAVQSDYKAHLKTCGTRGHSCDCGRVFSRVESFIEHQDNCSARRVHREPPRPPQTAVTVPACSSRTASTVSTPSSETNYGGTVAVTTPQPLEGRPIHQRISSSILTNSSNNLNLELQLLPLSSNQNPNQENQQQKVKEPSHHHNHNHDTTNLNLSIAPSSSYQHYNNFDRIKEIMASEQIMKIAMKEKAYAEEAKREAKRQREIAENEFANAKKIRQKAQAELERAKFLKEQSMKKISSTIMQVTCQTCKGQFQAVAVPAATADETSLVVSYMSSANTDGELENGF
AtIDD16 (Arabidopsis)
  binding: binds

B2: AtIDD1 (protein, UniProt Q9LVQ7 1-500)
chain: MPVDLDNSSTVSGDASVSSTGNQNLTPKSVGKKKRNLPGMPDPDAEVIALSPKTLMATNRFVCEICNKGFQRDQNLQLHRRGHNLPWKLRQRSTKEVRKKVYVCPVSGCVHHDPSRALGDLTGIKKHFCRKHGEKKWKCEKCSKKYAVQSDWKAHSKICGTKEYKCDCGTLFSRRDSFITHRAFCDALAEESAKNHTQSKKLYPETVTRKNPEIEQKSPAAVESSPSLPPSSPPSVAIAPAPAISVETESVKIISSSVLPIQNSPESQENNNHPEVIIEEASRTIGFNVSSSDLSNDHSNNNGGYAGLFVSSTASPSLYASSTASPSLFAPSSSMEPISLCLSTNPSLFGPTIRDPPHFLTPLPPQPAMSATALLQKAAQMGSTGSGGSLLRGLGIVSTTSSSMELSNHDALSLAPGLGLGLPCSSGGSGSGLKELMMGNSSVFGPKQTTLDFLGLGRAVGNGGNTGGGLSALLTSIGGGGGIDLFGSGEFSGKDIGRSS
AtIDD1 (Arabidopsis)
  binding: no binding

B3: AtIDD6 (protein, UniProt Q8RWX7 1-467)
chain: MSSSYNTIALSSTPTFLLSSAAAGPGPNNFNRQEAAMTMVQQQPTSSVAPPPKKRRNQPGNPNPDAEVIALSPKTIMATNRFLCEVCNKGFQREQNLQLHRRGHNLPWKLKQKSNKEVRRKVYLCPEPSCVHHDPARALGDLTGIKKHYYRKHGEKKWKCDKCSKRYAVQSDWKAHSKTCGTKEYRCDCGTIFSRRDSYITHRAFCDALIQESARNPTVSFTAMAAGGGGGARHGFYGGASSALSHNHFGNNPNSGFTPLAAAGYNLNRSSSDKFEDFVPQATNPNPGPTNFLMQCSPNQGLLAQNNQSLMNHHGLISLGDNNNNNHNFFNLAYFQDTKNSDQTGVPSLFTNGADNNGPSALLRGLTSSSSSSVVVNDFGDCDHGNLQGLMNSLAATTDQQGRSPSLFDLHFANNLSMGGSDRLTLDFLGVNGGIVSTVNGRGGRSGGPPLDAEMKFSHPNHPYGKA
AtIDD6 (Arabidopsis)
  binding: no binding

B4: AtIDD10 (protein, UniProt Q700D2 1-503)
chain: MQMIPGDPFSISSSMGGFVHQETHLHHLQQQIPDLNPNSNPNPNAKPNSSSAKKKRNQPGTPDPDADVIALSPTTLMATNRFVCEICNKGFQRDQNLQLHRRGHNLPWKLKQRSKQEVIKKKVYICPIKTCVHHDASRALGDLTGIKKHYSRKHGEKKWKCEKCSKKYAVQSDWKAHAKTCGTREYKCDCGTLFSRKDSFITHRAFCDALTEEGARMSSLSNNNPVISTTNLNFGNESNVMNNPNLPHGFVHRGVHHPDINAAISQFGLGFGHDLSAMHAQGLSEMVQMASTGNHHLFPSSSSSLPDFSGHHQFQIPMTSTNPSLTLSSSSTSQQTSASLQHQTLKDSSFSPLFSSSSENKQNKPLSPMSATALLQKAAQMGSTRSNSSTAPSFFAGPTMTSSSATASPPPRSSSPMMIQQQLNNFNTNVLRENHNRAPPPLSGVSTSSVDNNPFQSNRSGLNPAQQMGLTRDFLGVSNEHHPHQTGRRPFLPQELARFAPLG
AtIDD10 (Arabidopsis)
  binding: no binding

From PMC7349898
